#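 Five concentrations, 48 hours, 96-well plates. Abbreviation: GI50, concentration required for 50% inhibition of growth.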 The source made the active and inactive calls. Rule as the data show it: active = GI50 up to about 1.1 µM and inactive = higher.
# Test system: NCI-H322M
# Assay: NCI tumour cell line growth inhibition, 48 h
row,Compound,GI50
1,NC(Cc1ccccc1)P(=O)(O)O (stereo not given),inactive: > 100 µM
2,Nc1cc(O)c2c(c1O)C(=O)C=CC2=O,inactive: 19.9 µM
3,O=C1c2ccccc2C(=O)c2c1oc1cc(O)c(Cl)cc21,inactive: 10.9 µM
4,COC(=O)Cc1c(-c2[nH]c3ccccc3c2CC(=O)OC)[nH]c2ccccc12,inactive: > 52.6 µM
5,COc1c2c(c(OC)c3c1c(=O)c1ccccc1n3C)OCO2,inactive: 14.1 µM
6,N#CCN(Cc1ccccc1)[C@@H]1CCC[C@]1(O)C#Cc1ccc2c(c1)OCO2,inactive: 17.7 µM
7,O=C(Nc1sccc1S(=O)(=O)c1ccccc1)c1cccnc1,inactive: 40.9 µM
8,COc1nc(N)c(NC(C)=O)c(=O)n1C,inactive: > 100 µM
9,O=[N+]([O-])c1ccc(NS(=O)(=O)C(F)(F)F)cc1,inactive: > 100 µM
10,COC(=O)c1ccc(C)cc1CC1Cc2c(C)cccc2C1=O (stereo not given),inactive: 32.7 µM
11,COc1ccc(C2Oc3c(cccc3OC)C=C2[N+](=O)[O-])cc1 (stereo not given),inactive: 3.27 µM
12,O=C(c1ccccc1)N(CCCCNC(=O)C(F)(F)F)CCCNC(=O)C(F)(F)F,inactive: > 100 µM
13,CC(=O)c1c2c(cc3c1CC1(Cc4cc5c(cc4C1)CCC5)C3)CCC2,inactive: > 100 µM
14,CC(=O)SC(C[N+](=O)[O-])c1ccccc1 (stereo not given),inactive: 17.2 µM
15,COc1cc2c(cc1OC)C(Cc1cc(Br)c(OC)c(OC)c1)=[N+](C)CC2,inactive: > 100 µM
16,CC(=O)OCC1OC(NC(=S)Nn2c(-c3ccccc3)nc3ccccc3c2=O)C(OC(C)=O)C(OC(C)=O)C1OC(C)=O (stereo not given),inactive: > 100 µM
17,CO/N=C(\C(=O)[N-]n1cn[n+](CC(=O)OC(C)(C)C)c1)c1csc(NC(c2ccccc2)(c2ccccc2)c2ccccc2)n1,inactive: > 10 µM
18,COC(=O)/C=C(\C(=O)OC)c1cc(C)c2cc(C(C)C)ccc(C)c1-2,inactive: > 100 µM
19,Cc1nc2ccccc2n1Cc1ccc(NC(=S)NC2CCCCC2)cc1,inactive: 25.5 µM
20,COc1cc2c(cc1OCCCCCOc1cc3c(cc1OC)C(=O)N1CCC[C@H]1CN3)N=C[C@@H]1CCCN1C2=O,inactive: 14.3 µM
21,O=C1/C(=C/c2ccco2)NC(=S)N1CN1CCCCC1,inactive: > 100 µM
22,COc1ccc(C2=CN3CCC[C@H]3C=C2c2cc(O)c(OC)c(OC)c2)cc1OC,active: 0.00405 µM
23,COC(=O)C(=O)C(C(=O)C(=O)Nc1ccccc1C(=O)OC)c1nc2ccc(C(=O)c3ccccc3)cc2nc1O (stereo not given),inactive: > 100 µM

row,Compound,GI50
1,Cc1cc(=O)[nH]c2cc(NC(=O)C(CCCNC(=N)N)NC(=O)OCc3ccccc3)ccc12 (stereo not given),inactive: > 100 µM
2,Nc1ccc(C(=O)NN2C(=O)C(Cl)C2c2cc(Br)ccc2O)cc1 (stereo not given),inactive: > 100 µM
3,CCNC1C2(CCCCC2)NC(=O)C12CCCCC2 (stereo not given),inactive: > 100 µM
4,Cc1cc(N)ccc1/N=N\c1ccc(S(=O)(=O)CCOS(=O)(=O)O)cc1,inactive: 11.6 µM
5,O=C(O)CC[P+](c1ccccc1)(c1ccccc1)c1ccccc1,inactive: 71.8 µM
6,C=CCN1C(N)=C(C#N)C(C#N)(C#N)C1CCC (stereo not given),inactive: > 100 µM
7,CCN(CC)CCN(/C(=N/c1ccccc1)N1CCOCC1)c1ccccc1,inactive: > 100 µM
8,O=C1NN=C(c2ccc(Cl)cc2)CC1C1C(=O)N(c2ccccc2)N=C1c1ccccc1 (stereo not given),inactive: 20.3 µM
9,N#Cc1ccccc1/C=N/O,inactive: > 100 µM
10,CC(C)OCN/C(N)=N\C#N,inactive: > 100 µM
11,O=C(CSCC(=O)N/N=C/c1ccccc1)N/N=C\c1ccccc1,inactive: > 100 µM
12,CC(=O)OCc1nc(C#N)c(N)o1,inactive: > 100 µM
13,COC(=O)[C@]12CCC(C)(C)C[C@H]1C1=CC[C@@H]3[C@@]4(C)CC[C@H](OC5OC(CO)C(O)C(O)C5OC5OC(CO)C(O)C(O)C5O)C(C)(C)[C@@H]4CC[C@@]3(C)[C@]1(C)CC2 (stereo not given in full),inactive: 6.19 µM
14,N#C/C(=C1\OC(=N)C(c2ccc(Cl)cc2Cl)C1=O)c1ccc(Cl)cc1Cl (stereo not given),inactive: > 100 µM
15,O=C1CCC2(c3ccc(Cl)cc3)Nc3ncccc3N12 (stereo not given),inactive: > 100 µM
16,COc1ccc(NC(=O)CC(=O)N2N=C(C)C(/N=N/c3ccc(C(=O)O)cc3)C2=O)cc1 (stereo not given),inactive: > 100 µM
17,Cc1ccc(-c2c(C#N)c(-c3ccc(N(C)C)cc3)c(C#N)c(=O)n2NS(=O)(=O)c2ccccc2)cc1,inactive: 91.8 µM
18,O=C(O)c1nc2ccc(Cl)cc2[nH]c1=O,inactive: > 100 µM
19,Cc1cc(C)c2c(c1)Nc1ccccc1P2c1ccccc1 (stereo not given),inactive: 33 µM
20,CC/C(Cl)=N\OC(=O)Nc1ccc(F)c([N+](=O)[O-])c1,inactive: 31.7 µM
21,Cc1ccc(-c2n[nH]c(=O)[nH]2)cc1[N+](=O)[O-],inactive: > 100 µM
22,C[C@H](NC(=O)c1ccc(CNC(=O)/C=C/c2cccc(Oc3ccccc3)c2)cc1)c1ccccc1,inactive: > 100 µM
